Measured values from PMC11911400, “Mechanism of ASF1 engagement by CDAN1” (Nature Communications, 2025).
Where a chain is given by its changes, count along the chain named. Results are given in words; binding and its absence hold for the method and conditions named. In cells and extracts the contact can be indirect. Some results given as binding are weak or reduced against the parent protein; the word gives no strength.

The chains behind the UniProt entries cited, without tags or fusion partners. Where a name states a change or a piece, a line headed by the entry shows the natural chain unless it says otherwise. A line that says so, or that is headed by a name, gives the form on record, which may keep a tag or linker.
UniProt Q9NVP2: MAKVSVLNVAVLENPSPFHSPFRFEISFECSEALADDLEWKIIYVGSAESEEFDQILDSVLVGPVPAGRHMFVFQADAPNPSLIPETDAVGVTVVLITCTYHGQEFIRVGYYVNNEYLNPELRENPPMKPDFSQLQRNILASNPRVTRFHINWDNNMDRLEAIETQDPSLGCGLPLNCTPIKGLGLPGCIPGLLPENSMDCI
FLAG-ASF1B N > A (ASF1B with the NTD of ASF1A) (Q9NVP2, form named): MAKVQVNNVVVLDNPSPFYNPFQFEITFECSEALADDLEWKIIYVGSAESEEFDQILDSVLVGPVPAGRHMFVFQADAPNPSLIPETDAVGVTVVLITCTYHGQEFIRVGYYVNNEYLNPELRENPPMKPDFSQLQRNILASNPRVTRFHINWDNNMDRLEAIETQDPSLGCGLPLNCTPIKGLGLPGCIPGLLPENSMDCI
UniProt Q9Y294: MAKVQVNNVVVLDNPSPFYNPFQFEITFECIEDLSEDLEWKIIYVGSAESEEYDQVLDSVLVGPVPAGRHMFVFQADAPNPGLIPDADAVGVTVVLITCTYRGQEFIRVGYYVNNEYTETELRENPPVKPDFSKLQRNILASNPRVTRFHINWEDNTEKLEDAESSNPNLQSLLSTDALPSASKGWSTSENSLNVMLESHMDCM
FLAG-ASF1A N > B (ASF1A with the NTD of ASF1B) (Q9Y294, form named): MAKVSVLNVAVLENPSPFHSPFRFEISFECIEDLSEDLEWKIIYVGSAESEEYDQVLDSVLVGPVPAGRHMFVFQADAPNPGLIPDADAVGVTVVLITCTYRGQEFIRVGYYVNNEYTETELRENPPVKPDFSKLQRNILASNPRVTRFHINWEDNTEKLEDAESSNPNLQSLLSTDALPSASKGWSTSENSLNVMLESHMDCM

Legend:
[1] = target: T1, Strep-CDAN1 HMHA1* (R541A/R544A/R548A) (human) (UniProt Q8IWY9); assay: pull-down; Strep-Tactin pulldown of ST-CDAN1 variants co-transfected with FLAG-tagged ASF1A or ASF1B variants in Flp-In 293 T-REx cells; immunoblotting; IP buffer with 1% Triton X-100, 1 hr at 4 °C
T1 sequence: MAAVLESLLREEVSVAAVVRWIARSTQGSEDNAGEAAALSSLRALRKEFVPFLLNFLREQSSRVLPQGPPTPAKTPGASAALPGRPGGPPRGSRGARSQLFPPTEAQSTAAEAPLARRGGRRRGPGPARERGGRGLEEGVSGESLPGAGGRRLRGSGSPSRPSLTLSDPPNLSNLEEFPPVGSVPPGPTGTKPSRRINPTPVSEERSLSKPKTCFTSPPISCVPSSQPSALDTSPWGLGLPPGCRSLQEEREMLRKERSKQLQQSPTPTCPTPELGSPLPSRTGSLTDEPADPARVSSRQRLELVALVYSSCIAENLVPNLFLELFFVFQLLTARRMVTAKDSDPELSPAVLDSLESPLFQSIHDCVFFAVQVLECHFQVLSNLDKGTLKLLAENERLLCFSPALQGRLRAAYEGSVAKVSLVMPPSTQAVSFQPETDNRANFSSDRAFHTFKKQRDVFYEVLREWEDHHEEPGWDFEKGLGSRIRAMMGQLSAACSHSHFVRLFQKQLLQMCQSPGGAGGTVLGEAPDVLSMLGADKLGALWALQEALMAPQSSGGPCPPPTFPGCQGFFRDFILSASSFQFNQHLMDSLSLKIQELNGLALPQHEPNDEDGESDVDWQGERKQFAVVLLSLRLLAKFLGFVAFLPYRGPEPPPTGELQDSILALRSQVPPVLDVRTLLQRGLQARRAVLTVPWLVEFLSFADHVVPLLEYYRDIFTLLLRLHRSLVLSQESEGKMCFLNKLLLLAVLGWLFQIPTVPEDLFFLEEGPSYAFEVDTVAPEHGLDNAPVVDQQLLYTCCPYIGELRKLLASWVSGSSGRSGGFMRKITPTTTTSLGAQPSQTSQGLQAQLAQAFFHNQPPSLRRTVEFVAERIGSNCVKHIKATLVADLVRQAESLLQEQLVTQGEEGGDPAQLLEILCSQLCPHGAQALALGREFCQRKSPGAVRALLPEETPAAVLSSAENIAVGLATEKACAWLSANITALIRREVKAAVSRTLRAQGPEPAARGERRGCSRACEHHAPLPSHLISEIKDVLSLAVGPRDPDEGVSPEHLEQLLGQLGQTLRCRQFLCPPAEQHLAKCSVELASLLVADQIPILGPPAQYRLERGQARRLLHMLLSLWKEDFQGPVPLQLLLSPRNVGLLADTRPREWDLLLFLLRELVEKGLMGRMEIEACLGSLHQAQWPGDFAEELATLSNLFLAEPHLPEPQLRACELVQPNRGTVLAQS

[2] = target: T2, HMHA2* BDA2* ST-CDAN1 (human) (UniProt Q8IWY9); assay: as above
T2 sequence: T1 sequence with S194A, R195A, R196A, R251A, R255A, R258A, A541R, A544R, A548R

Substance | binding [1] | binding [2]
FLAG-tagged ASF1B (F-ASF1B) (from UniProt Q9NVP2 1-202) | no binding | binds
FLAG-tagged ASF1A (F-ASF1A) (from UniProt Q9Y294 1-204) | binds | binds
FLAG-ASF1A N > B (ASF1A with the NTD of ASF1B) (from UniProt Q9Y294 1-204) | no binding | binds
FLAG-ASF1B N > A (ASF1B with the NTD of ASF1A) (from UniProt Q9NVP2 1-202) | binds | binds
